According to PubChem BioAssay (NCATS):
Inconclusive results, whose numbers are uncertain, are shown with a selection of clear calls. Potencies of inconclusive entries are left out as doubtful fits. Active and inactive are the calls of the source. Calls follow the shape of the dose curve; as a rule, active = well fitted curve in the direction sought with a large enough effect; inconclusive = small, poorly fitted or top-dose-only effect, or another doubt; inactive = no such curve, though single readings can be large; an effect the other way counts as inactive or inconclusive.

Assays:
[1] = target: DNA polymerase kappa (Homo sapiens) (UniProt Q9UBT6); assay: qHTS for Inhibitors of Polymerase Kappa: Confirmatory Assay for Cherry-picked Compounds (AID 720501); details: purified Pol-kappa, fluorescent strand-displacement substrate
Method in brief: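 Strand-displacement fluorescence read-out: TAMRA reporter released from a BHQ-2-quenched template, measured at 525/598 nm over a 10 min kinetic window. Substrate was 50 nM final; enzyme was 10 nM Pol-kappa, preincubated 15 min at room temperature with compound.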

[2] = target: DNA polymerase eta (Homo sapiens) (UniProt Q9Y253); assay: qHTS for Inhibitors of Polymerase Eta: Confirmatory Assay for Cherry-picked Compounds (AID 720502); details: Pol eta primer extension, TAMRA/BHQ fluorescence, 10 min
Method in brief: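 Human Pol eta at 10 nM was preincubated with compound for 15 min at room temperature. Reaction was started with TAMRA/BHQ-2-labelled primer-template substrate (50 nM final), with fluorescence read at 0 and 10 min (ex 525, em 598 nm).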

[3] = target: RecQ-like DNA helicase BLM (Homo sapiens) (UniProt P54132); assay: qHTS for Inhibitors of WRN Helicase: BLM Helicase Counterscreen for WRN Inhibitors (AID 720503); details: Recombinant BLM helicase DNA unwinding, red fluorescence; also: nearly all actives have a fitted effect of over 60% in size
Method in brief: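 BLM (1 nM) was preincubated with compounds for 15 min at room temperature in Tris-HCl pH 8.0, 50 mM NaCl, 2 mM MgCl2 buffer. Unwinding started with 100 nM DNA and 2 mM ATP (final); red fluorescence was read twice, 15 min apart.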
Potency is read from the fitted curve at half-maximal effect; tags tell the direction and shape of the fitted curve.

Chain of UniProt Q9UBT6 (Q9UBT6 whole entry, looked up): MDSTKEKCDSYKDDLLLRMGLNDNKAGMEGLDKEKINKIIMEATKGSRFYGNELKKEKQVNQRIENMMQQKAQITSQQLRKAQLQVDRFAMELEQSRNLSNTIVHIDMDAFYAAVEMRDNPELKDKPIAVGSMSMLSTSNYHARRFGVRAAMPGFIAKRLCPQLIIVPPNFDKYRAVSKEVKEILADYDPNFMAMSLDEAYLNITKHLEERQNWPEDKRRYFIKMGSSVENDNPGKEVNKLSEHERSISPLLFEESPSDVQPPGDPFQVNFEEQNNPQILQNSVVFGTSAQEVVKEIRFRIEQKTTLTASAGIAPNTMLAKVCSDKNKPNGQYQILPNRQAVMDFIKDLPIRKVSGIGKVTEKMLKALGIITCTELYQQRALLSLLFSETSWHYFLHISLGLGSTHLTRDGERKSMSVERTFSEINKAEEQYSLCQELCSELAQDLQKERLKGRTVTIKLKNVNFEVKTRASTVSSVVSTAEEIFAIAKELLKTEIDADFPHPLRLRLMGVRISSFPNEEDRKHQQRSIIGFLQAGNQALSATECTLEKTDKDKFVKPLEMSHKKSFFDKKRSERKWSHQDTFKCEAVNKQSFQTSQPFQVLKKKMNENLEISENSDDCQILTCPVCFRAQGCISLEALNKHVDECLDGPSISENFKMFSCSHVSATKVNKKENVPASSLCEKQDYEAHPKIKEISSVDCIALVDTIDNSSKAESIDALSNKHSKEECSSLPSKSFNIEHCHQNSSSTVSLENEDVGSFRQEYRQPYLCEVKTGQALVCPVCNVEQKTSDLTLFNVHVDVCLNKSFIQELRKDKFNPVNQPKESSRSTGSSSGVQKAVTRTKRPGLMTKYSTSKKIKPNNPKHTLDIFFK
Chain of UniProt P54132 (P54132 whole entry, looked up): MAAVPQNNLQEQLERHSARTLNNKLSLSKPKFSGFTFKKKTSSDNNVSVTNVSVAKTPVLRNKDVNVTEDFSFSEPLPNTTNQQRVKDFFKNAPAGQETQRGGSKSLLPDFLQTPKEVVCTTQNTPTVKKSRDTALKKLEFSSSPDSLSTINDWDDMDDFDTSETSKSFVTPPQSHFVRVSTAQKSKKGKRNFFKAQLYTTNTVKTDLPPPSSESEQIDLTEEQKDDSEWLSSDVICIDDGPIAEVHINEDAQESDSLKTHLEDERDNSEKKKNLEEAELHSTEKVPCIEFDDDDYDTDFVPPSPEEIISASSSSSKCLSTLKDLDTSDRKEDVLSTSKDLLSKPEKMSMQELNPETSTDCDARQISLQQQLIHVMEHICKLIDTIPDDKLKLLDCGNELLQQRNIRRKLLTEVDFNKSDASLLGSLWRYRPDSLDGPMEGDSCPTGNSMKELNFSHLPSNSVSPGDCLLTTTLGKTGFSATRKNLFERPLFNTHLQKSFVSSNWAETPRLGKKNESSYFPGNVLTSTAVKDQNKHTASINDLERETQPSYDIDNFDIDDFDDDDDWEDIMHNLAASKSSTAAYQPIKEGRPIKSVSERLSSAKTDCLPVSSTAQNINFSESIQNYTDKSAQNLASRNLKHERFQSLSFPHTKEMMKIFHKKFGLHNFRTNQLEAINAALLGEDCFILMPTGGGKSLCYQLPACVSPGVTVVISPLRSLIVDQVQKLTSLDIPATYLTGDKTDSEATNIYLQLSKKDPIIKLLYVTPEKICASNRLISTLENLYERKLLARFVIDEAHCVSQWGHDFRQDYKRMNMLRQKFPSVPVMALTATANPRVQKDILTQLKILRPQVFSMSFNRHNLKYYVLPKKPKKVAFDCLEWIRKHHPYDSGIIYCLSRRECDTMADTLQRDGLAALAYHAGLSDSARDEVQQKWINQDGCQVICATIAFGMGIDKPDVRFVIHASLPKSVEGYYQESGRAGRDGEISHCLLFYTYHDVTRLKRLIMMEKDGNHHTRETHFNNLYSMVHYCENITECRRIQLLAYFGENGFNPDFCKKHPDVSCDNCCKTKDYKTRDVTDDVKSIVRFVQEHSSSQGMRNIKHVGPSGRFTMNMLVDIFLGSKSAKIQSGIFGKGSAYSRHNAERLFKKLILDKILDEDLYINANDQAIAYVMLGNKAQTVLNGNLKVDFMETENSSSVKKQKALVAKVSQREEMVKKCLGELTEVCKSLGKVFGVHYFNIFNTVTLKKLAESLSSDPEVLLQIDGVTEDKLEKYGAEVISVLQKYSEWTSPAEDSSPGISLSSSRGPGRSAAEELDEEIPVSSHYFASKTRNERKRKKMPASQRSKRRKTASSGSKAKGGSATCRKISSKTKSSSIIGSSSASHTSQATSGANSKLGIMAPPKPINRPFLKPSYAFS
Chain of UniProt Q9Y253 (Q9Y253 whole entry, looked up): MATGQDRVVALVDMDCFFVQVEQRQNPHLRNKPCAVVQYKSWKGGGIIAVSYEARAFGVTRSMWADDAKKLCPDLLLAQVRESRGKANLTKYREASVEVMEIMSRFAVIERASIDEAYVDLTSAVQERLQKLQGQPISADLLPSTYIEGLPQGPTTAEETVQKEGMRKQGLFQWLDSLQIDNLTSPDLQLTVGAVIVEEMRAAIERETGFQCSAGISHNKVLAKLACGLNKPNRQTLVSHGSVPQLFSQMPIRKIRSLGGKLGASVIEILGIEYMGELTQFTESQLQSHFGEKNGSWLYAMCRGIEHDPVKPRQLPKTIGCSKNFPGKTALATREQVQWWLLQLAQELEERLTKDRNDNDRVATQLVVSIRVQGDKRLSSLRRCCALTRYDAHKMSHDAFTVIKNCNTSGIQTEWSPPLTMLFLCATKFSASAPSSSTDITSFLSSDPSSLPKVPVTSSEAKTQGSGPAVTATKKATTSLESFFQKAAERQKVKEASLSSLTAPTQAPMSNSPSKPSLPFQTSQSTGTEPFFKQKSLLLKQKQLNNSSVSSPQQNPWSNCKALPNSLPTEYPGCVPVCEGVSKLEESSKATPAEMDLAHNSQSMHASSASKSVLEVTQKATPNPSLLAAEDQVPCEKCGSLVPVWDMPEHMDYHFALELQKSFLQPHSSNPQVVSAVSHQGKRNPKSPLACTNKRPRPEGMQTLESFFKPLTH

SMILES	Potency [1]	Potency [2]	Potency [3]
NNc1cc([N+](=O)[O-])cc2c1C(=O)N(Cc1ccccc1)S2=O (centres undefined)	inconclusive [inhibitor, partial curve]	inconclusive [inhibitor, single point]	–
CC(=O)c1ccc(S(=O)(=O)Nc2ccc(C(=O)NCC(c3ccco3)N3CCCC3)cc2)cc1 (centres undefined)	inconclusive [inhibitor, full curve, poor fit]	inconclusive [inhibitor, single point]	–
Cc1c(Cl)cnc(NC(=O)COC(=O)CNC(=O)c2ccccc2)c1Cl	inconclusive [inhibitor, partial curve]	inconclusive [inhibitor, single point]	–
Cc1ccc(-c2csc(NC(=O)c3ccno3)n2)cc1	–	inconclusive [inhibitor, single point]	–
Cn1cccc1CC(=O)N/N=C/C=C/c1ccco1	–	inconclusive [inhibitor, single point]	–
CN(C)c1ccc(N2C(=O)CSC2=S)cc1	–	inconclusive [inhibitor, single point]	–
Cc1nnc(SCC2=C(C(=O)O)N3C(=O)C(NC(=O)COc4ccccc4)C3SC2)s1 (centres undefined)	inconclusive [inhibitor, partial curve]	active: 37.9 µM	–
O=C(Cc1ccc(Br)cc1)Nc1ncc([N+](=O)[O-])s1	inconclusive [inhibitor, partial curve]	inconclusive [inhibitor, single point]	–
CCc1ccc(S(=O)(=O)/N=C2\C=C(Nc3ccc(C(=O)O)cc3)C(=O)c3ccccc32)cc1	inconclusive [inhibitor, partial curve]	active: 21.3 µM	–
CCc1ccc(C(=O)c2cn(CC(=O)Nc3ccc4c(c3)OCO4)c3ccc(OC)cc3c2=O)cc1	active: 16.8 µM	inconclusive [inhibitor, single point]	–
Cc1cc(S(=O)(=O)Nc2nc(CN3CCOCC3)nc3sc4c(c23)CCC4)cc(C)c1C	inconclusive [inhibitor, partial curve]	inconclusive [inhibitor, single point]	–
Cc1cc(=O)oc2c(CN3CC(C)OC(C)C3)c(O)c(Cl)cc12 (centres undefined)	inconclusive [inhibitor, partial curve]	inconclusive [inhibitor, single point]	–
Cc1cccc(C)c1NC(=O)Cn1cc(S(=O)(=O)Cc2ccc(F)cc2)c2ccccc21	inconclusive [inhibitor, partial curve, poor fit]	inconclusive [inhibitor, single point]	–
COC(=O)c1ccc(C)c(NC(=O)CSc2sc3c(O)cc(=O)[nH]c3c2C#N)c1	inconclusive [inhibitor, partial curve]	inconclusive [inhibitor, single point]	–
COc1cc(/C=C/c2ccc3cccc([N+](=O)[O-])c3n2)ccc1OCC(=O)O	inconclusive [inhibitor, single point]	active: 75.7 µM	–
CC(=O)N1CCc2c(sc(NC(=O)c3ccc([N+](=O)[O-])o3)c2C#N)C1	–	inconclusive [inhibitor, single point]	–
COc1ccccc1NC(=O)COC(=O)c1cc2c(s1)CCC2	inconclusive [inhibitor, partial curve]	active: 75.7 µM	–
O=C1C(=C(I)I)c2ccccc2-c2ccccc21	–	active: 23.9 µM	–
Cc1cc(O)c(CN(C)C)c2c1C(=O)/C(=C/c1ccco1)O2	active: 33.6 µM	active: 53.6 µM	–
CCS(=O)(=O)C1=NN2C(=N)/C(=C\c3ccc(OCCOc4cccc(OC)c4)c(OC)c3)C(=O)N=C2S1	inconclusive [inhibitor, single point]	inconclusive [inhibitor, single point]	–
CC1(C)OC(C)(C)/C(=C/Nc2ccc(O)cc2)C1=O	inconclusive [inhibitor, partial curve]	inconclusive [inhibitor, single point]	–
Cc1nc(Nc2nc(-c3ccccc3)cc(=O)[nH]2)nc2ccccc12	–	inconclusive [inhibitor, partial curve, poor fit]	–
COCCNC(=O)Nc1ccc2nc(-c3ccco3)c(-c3ccco3)nc2c1	active: 3.77 µM	active: 5.36 µM	–
O=C(O)c1cc(-c2ccc(/C=N/NC(=S)Nc3ccccc3)o2)ccc1Cl	active: 75.2 µM	inconclusive [inhibitor, single point]	–
CC(=O)Nc1ccc(NC(=O)CSc2nc(N)c(NC(=O)c3ccccc3F)c(=O)[nH]2)cc1	inconclusive [inhibitor, partial curve]	inconclusive [inhibitor, single point]	–
O=C(Nc1ccc2[nH]c(=O)[nH]c2c1)c1ccc([N+](=O)[O-])o1	inconclusive [inhibitor, partial curve]	inconclusive [inhibitor, single point]	–

SMILES	Potency [1]	Potency [2]	Potency [3]
O=C1CCCC2=C1C(c1ccc(O)c(O)c1)c1c(ccc3ncccc13)N2 (centres undefined)	–	inconclusive [inhibitor, single point]	–
Cc1cccc(Oc2ccccc2NS(=O)(=O)c2ccc(CCC(=O)O)cc2)c1	active: 18.9 µM	active: 84.9 µM	–
COc1ccc(CC(=O)Nc2sc3c(c2C(=O)Nc2ccc(C)cc2)CCCCC3)cc1	inconclusive [inhibitor, partial curve, poor fit]	inconclusive [inhibitor, single point]	–
COc1ccc(CN(Cc2ccccc2)C(=O)c2ccno2)cc1COc1ccc(NC(C)=O)cc1	–	inconclusive [inhibitor, single point]	–
Cc1cccc(NC(=O)C2CC(=O)OC23CCCC3)c1 (centres undefined)	–	inconclusive [inhibitor, single point]	–
O=C1CCCN1C(=O)CSc1ncnc2sccc12	inconclusive [inhibitor, full curve, poor fit]	active: 75.7 µM	–
CCCCN(C(=O)c1cc(-c2ccco2)nc2ccccc12)c1c(N)n(CCC)c(=O)[nH]c1=O	active: 37.7 µM	active: 47.8 µM	–
Cc1ccccc1OCC(=O)OCC(=O)Nc1ncc(Cl)c(C)c1Cl	inconclusive [inhibitor, partial curve]	inconclusive [inhibitor, single point]	–
Cc1c(Cl)cnc(NC(=O)COC(=O)[C@H](C)NC(=O)c2ccccc2)c1Cl	inconclusive [inhibitor, partial curve]	inconclusive [inhibitor, single point]	–
O=C(O)CN1C(=O)/C(=C/c2ccc(N3CCCCC3)o2)SC1=S	–	–	active: 24.1 µM
C=CCn1c(SCC(=O)c2ccc(O)c(O)c2)nnc1-c1cccc(C)c1	–	inconclusive [inhibitor, partial curve]	inconclusive [inhibitor, full curve]
O=C(/C=C/c1ccco1)c1ccc(NC(=O)C23CC4CC(CC(C4)C2)C3)cc1	–	inconclusive [inhibitor, partial curve]	–
O=C(O)c1cccc(-c2ccc(/C=N/NC(=O)C3COc4ccccc4O3)o2)c1 (centres undefined)	–	active: 60.1 µM	–
CC1=NN(c2ccc(C(=O)O)cc2)C(=O)/C1=C\c1ccc(OC(=O)c2cccs2)cc1	–	inconclusive [inhibitor, single point]	inconclusive [inhibitor, partial curve]
O=C(O)CN1C(=O)/C(=C/c2ccc(-c3cccc(Cl)c3)o2)SC1=S	–	inconclusive [inhibitor, single point]	–
Cn1cccc1C(=O)OCc1nc2ccccc2c(=O)[nH]1	–	inconclusive [inhibitor, single point]	–
O=C(O)/C=C/c1ccc(S(=O)(=O)Nc2ccc3[nH]c(=O)[nH]c3c2)cc1	–	inconclusive [inhibitor, single point]	–
O=C(Nc1cccnc1Cl)c1ccc(=O)oc1	–	inconclusive [inhibitor, single point]	–
O=C(COc1ccccc1)Nc1ccc(S(=O)(=O)NCc2ccco2)cc1	–	inconclusive [inhibitor, single point]	–
O=C(OCc1ccco1)c1ccc(S(=O)(=O)N2CCCCC2)cc1	–	inconclusive [inhibitor, single point]	–
NS(=O)(=O)c1ccc(CCNC(=O)COC(=O)c2ccc([N+](=O)[O-])o2)cc1	–	inconclusive [inhibitor, single point]	–
CCCc1cc(=O)oc2cc(C)c(CN3CCCC3)c(O)c12	–	active: 67.5 µM	–
Cc1ccc(S(=O)(=O)CCC(=O)OCC(=O)Nc2sccc2C#N)cc1	–	inconclusive [inhibitor, single point]	–
N=C(N)SCc1ncccc1O	–	inconclusive [inhibitor, single point]	–
COC(=O)c1ccc(NS(=O)(=O)c2ccc3[nH]c(=O)oc3c2)cc1	–	inconclusive [inhibitor, single point]	–
